In the supplement of paper PMC10681739 one finds ETS1 binding intensity data, which are given here for 80 sequences.

± gives the standard deviation of the averaged measurements. In all, about 4,100 sequences were measured (“arbitrary fluorescence units”: median about 780, highest 2% from about 22,000 on). The list shows a part of the results.

This experiment has as its target T1, ETS1 (UniProt P14921).
T1 sequence: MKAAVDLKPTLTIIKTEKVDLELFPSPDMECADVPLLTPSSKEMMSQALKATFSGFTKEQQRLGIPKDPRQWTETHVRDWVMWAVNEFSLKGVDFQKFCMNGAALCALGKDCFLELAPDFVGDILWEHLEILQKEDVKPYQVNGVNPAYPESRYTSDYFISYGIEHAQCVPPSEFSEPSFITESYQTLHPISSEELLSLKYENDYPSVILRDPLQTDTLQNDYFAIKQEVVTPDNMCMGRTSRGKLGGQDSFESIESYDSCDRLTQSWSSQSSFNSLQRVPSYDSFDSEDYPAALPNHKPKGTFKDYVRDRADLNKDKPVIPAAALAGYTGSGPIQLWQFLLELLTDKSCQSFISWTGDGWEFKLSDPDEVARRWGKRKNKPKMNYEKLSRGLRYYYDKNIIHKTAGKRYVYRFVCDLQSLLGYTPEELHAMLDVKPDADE
Put plainly: ETS1 binding intensity (PBM fluorescence), ETS1 alone (arbitrary fluorescence units); higher = stronger binding. As to conditions: ETS1 concentration 1 nM; RUNX1 concentration 0 nM. The method, boiled down:
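Recombinant full-length human ETS1 was applied at 1 nM, without RUNX1, to double-stranded Agilent 4 × 180k arrays of 36-bp genomic probes carrying a mutated RUNX1 partner site, following standard PBM protocols. Detection used an anti-ETS1 antibody (Cell Signaling Technology 14069) and an Alexa488-conjugated secondary antibody, with scanning on a GenePix 4400A. Each sequence was printed as four replicate spots. Binding level is the spot fluorescence intensity, summarised across replicates and not normalised.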
As for GGGCAGGTGCGGATGCCGAGGAGAGTGGACACCTCG, the ETS1 binding intensity came to 537.
The result for GTTGTGCAAGCTACAGATGATATGGGGAAGTAGTTT reads 405.
The result for AGCGTATGAACGACAGGAACTTCCGGGTTTTAAAGA reads 6820; that for TCGGCTCACGGTGGGAGCGCCGGAAGCCCGCCCCAC, 964.
The sequence CGGTGCCGTACGCACACCACGGATGCCACTCAGCAG gave an ETS1 binding intensity of 387.
GGTGGCAACATCCTGGGGAGGGGAACCTACAGGGGA yielded an ETS1 binding intensity of 4130.
The result for GGGCGGAAGTGCGTCACTATGTCCGACCAGCAGTGC reads 4300.
The figure for GGCACCGGAAGTAGAGCTGCCCCTAGTTTCGGCAGT is 22100; for GTCAGGAAACACATAGTTGTGTTTAAGCTCAGGAAA it is 729.
CTGTTGTCATTTGTCATAGCAGCCACAGGAAACTAG displayed an ETS1 binding intensity of 474.
Turning to CAGTCTCCTTCCGCGTCACCTCTGTGATCGCTGTGC, the ETS1 binding intensity was 895.
The result for GATGGGCTGGGGATGTGGCCTGTTTGCCGCTGGCGA reads 361.
The figure for GCGATCGGAGCGGAAGTGGAGCTACCGGCACCGCCG is 9210; for CGACGCGCGGAAGGAGTTCGCGCGACGACCTCGGGG it is 476; for GAGAAACGTCAGGCATGGCCGGGCCACCAGGAAAAC it is 347.
The result for CGCCGAGGTAGCCGCCTCACTTCCCCTCCCGACCAC reads 569.
Turning to GATGTCCGTGGCCGCCTCCGGAAGAATTCTCTGCGA, the ETS1 binding intensity was 663.
The result for GGAGTGAGGAGGAAGCGGAGGCGAGACGGCGCTCAA reads 664; that for GGTTGGGTGAGGTCCGTGAGGTTCCGGCCCAGCCCA, 773; that for AAGCAGTCAGGATGGCCGAGCGCTCTAAGGCGCTGC, 337.
The figure for CGAAAAACGTCAGGGGAGCCATGGGGGCAGGAAGGG is 485.
In turn, AAGTCAAAATCGCAAACGCTCAGGAAAAAAGACTCT registered an ETS1 binding intensity of 413.
The result for GCACAAAGCTACAAAACCCATTCCTGCCGGATATGA reads 684.
The figure for CTTGTAGTCAGGTTGTTGGGCAGGATGTTTCTCATG is 475; for GTGGCGCGCTGGGGCGCGGACCCGGAACTGCCAAGT it is 363; for CCCGCCGCCACTAGGAGACGCCCGAGGACTTCCCTC it is 364.
For the sequence CGCCGCGGCGGATGGAGGTGCCCAGGGCCACGGACC, the ETS1 binding intensity was found to be 433.
For the sequence GCCTGGCCGAAGCTGCTGCTGAGCGGAAGTCTCTGA, the ETS1 binding intensity is 868.
The figure for GTTATCCACCCTCTCTATGCTTCAGTTTCCTCATGT is 634 ± 39; for GCTGGGGCCAAGTGCAGGAACCGGAGGAAGGAACTG it is 342.
The figure for GACTCACACGCTTCGGCGACAGGAAAGCCCGCGCCC is 530; for TGGGCACGGGAGGAAGAGGCTGGGTGGAAAACAGGA it is 433; for CACTGATTAAGAGGAAGTGTGTGTGATTATTACCGT it is 1270.
The figure for GCTGCTCACAGCGCTCACCCTCCACATCCCGGCCGC is 345; for CTGAGGTGTCGGAGGCTGTGACGTCGGGAAGTAAGT it is 373.
Sequence ACCTCATCCTGCTGTTCTTGTGTGTCGTTGAGCAGT returned an ETS1 binding intensity of 2840.
CCTGGGGTACGCCTGGGTCACGCCTCTTCCGCTAAG: the ETS1 binding intensity amounted to 504.
The result for GGAGCTACCTCAGGCAGACTAACTTCCTGCTAAGCA reads 3290.
ACCCCACCAGCCGCCTCCACTTCCGGCACCCACGAG: the ETS1 binding intensity was found to be 10400.
The figure for ACCTGGTCTTGTAGCCCCCACCCAGGAAATGACTCA is 567; for ACAATAACAGGAAGTGGTGGGGACTGGGGTGACCTG it is 8620.
The figure for CCAGGAGCGTTTCGGCCGCGGCTTCCTCCTACGGCG is 464; for GGGGCCCCGGATGCACTGAGCGGATTCGGCGCGGCT it is 1160.
The figure for AGCCAACAGGAAGCTGCAGAGACTAAACTACAGCAA is 3610.
On to TGTTGGTGGATAAAAAGCAATTTGGGACTTCCTCTT, for which the ETS1 binding intensity worked out at 546.
The figure for CCATTCTTCCGGTGGAGATGGCGGCGGCCGTGGCGG is 17800; for CTCCTACGGCGACACGCCTAGCAGACGGCGGAAGGC it is 371; for CTTGCGCCGTCCGGGTACCTGAGGGCGGGGTGTACC it is 477.
The result for GCGGCGAACCGGACGCCCCAACAAGCCGCCCCCCAC reads 866.
The figure for TGACTCGAGGTCTTGTTATCAGTTTCCGGGATGACA is 1370; for AAGGAACTGTCGTAAGAGAAGGAAGTGGTAGCCACT it is 456.
With GACGCAATCCCTCAGCCTTCTGGGAAACGTAGTTTA, the ETS1 binding intensity was 450.
The result for TTGGCCTCGCCGGAACCCCTTGCACCGTGGACACAG reads 315; that for TATCATTTTTACGACAGAGGTACAGGAAATTGTTTC, 733.
The result for AGCGGCGCCTTCCGCAGAGGGACAGCGCCTTTCTGC reads 1010; that for AGAAAGCAGGAAAGTGACGTCATTTTGTGACTTCAG, 492; that for TTGGGGCTAATGGCTCAGCAGGATTAGGAAGCAACT, 406.
AGCTCCCAGAGCACAGAGGTTTTCCTGCATGGAGGA displayed an ETS1 binding intensity of 345.
The result for CTAGCCAGGAAGATAAAGAAGAATCCACCAAAGAGA reads 414; that for ACAAAGAAACCTACATCCTAAGCCACCGAATACAGC, 592; that for TCGGCGGATATGAAAAAAAGTCCGTGCTCACGTGCA, 1250.
The figure for CTTATCTTCTTCCTGTGAGCTGTGTGTGCGTGGCTC is 3200.
The result for CCGGGACCTCGGCTTGGGCTCACGGCCACTTCCGAC reads 393; that for TCGTATTTGGGGTCAGCCTCTTCCGTAATGTGCTTG, 441.
For the sequence GACCCCTACGCGGAACTCTCTCGCGGCAATTCGAAG, the ETS1 binding intensity is 390.
The figure for TGCACACATGAGGAAGGGGTAAGTGGATTTCCCTAC is 406; for GTGACAGCCGCCTCCCCAGCCACATCCTGTTTGACT it is 4030.
The sequence GTGACGGATATCCACCGGGCCCTGTAGTTTCCAACA gave an ETS1 binding intensity of 935.
The result for GCCACATATTTCCTGTGACAACCCTGAGGTGTGGCT reads 7410.
The figure for CTCTTTTATACCCCAAGGAGGAAAAGGAAATGAACC is 641; for CGAACGCCGGACGTTCTGGGCACGTGATCGCCACCC it is 803; for CCTCCAGGAAGCGATAAGTGACTCTGGTGGAGAGAG it is 1020.
The result for GGCTGAAGGTTTCCGTGCTTGGAAATCGCGCCTCCG reads 1010.
GCCGCGCGGAAGCCTCCGCCCTGTAGTTTTGGAGCC: the ETS1 binding intensity came to 383.
The figure for AGCGAGCGGCGGCTGTGCCAGGCGTTCCGTCCGGCG is 287; for AGGCGGCAGGAAATGACCCCATCGCGCAGCCTGGGC it is 5990; for CTCTTTCACAAAGGAAATGGAAACCCCAAAGAGGAC it is 1290.
TGCAGCCTATTTCCTCTAACCCGTAGATCCACTATG: the ETS1 binding intensity amounted to 4660.
The figure for GCTTCAGGCTTCCGGGGCGCACACTGCCGTAAAGCT is 5230; for TCCCAGGAACGACAGTGGGACAGGAAGTGACAGCCA it is 3790.
